Experimental data taken from PubChem BioAssay AID1814 (Broad Institute, 2009).
Screen size: about 300,000 compounds; about 22,000 (7.3%) were called active. This list was built around the results that the source calls inconclusive (neither active nor inactive); the mix of calls is not that of the screen. Cut-off read from the data, not from the text of the source: active = activity score below about -60%; inconclusive = mostly about -28% to -61%; inactive = positive scores.

Test: Activators via SNCA 5'UTR binding, MLPCN (AID 1814)
Settings: alpha-synuclein 5'UTR reporter, activators screen; hits give low values; tested at 7.5 µM

| SMILES | activity score |
| --- | --- |
| CCc1nnc(NS(=O)(=O)c2ccc(N/C=C(\C=O)c3nc4cc(Cl)ccc4o3)cc2)s1 | inconclusive: -59.7% |
| CC(C)(C)c1ccc2c(c1)OC(C(=O)N/N=C\c1ccc(-c3cccc(C(=O)O)c3)o1)CO2 (configuration not stated) | inconclusive: -47% |
